According to patent publication US20250084178A1 (ARCUS BIOSCIENCES, published 2025):
Substitutions are numbered along the chain they refer to. Numbers in names are those of the source. Like-named read-outs stand apart in the source and are kept apart here. Each block holds one binder with its values, some of them ahead of it.

Tests used:
[1] = biological target: T1, soluble His-tagged human CD39 ECD protein (human, UniProt P49961 38-478); test: SPR (Biacore 8K), antibody captured via anti-human Fc, CD39 ECD analyte
T1 construct: also called human CD39 ECD His-tagged antigen; Sino Biological Cat. No. 16020-H08B
T1 sequence: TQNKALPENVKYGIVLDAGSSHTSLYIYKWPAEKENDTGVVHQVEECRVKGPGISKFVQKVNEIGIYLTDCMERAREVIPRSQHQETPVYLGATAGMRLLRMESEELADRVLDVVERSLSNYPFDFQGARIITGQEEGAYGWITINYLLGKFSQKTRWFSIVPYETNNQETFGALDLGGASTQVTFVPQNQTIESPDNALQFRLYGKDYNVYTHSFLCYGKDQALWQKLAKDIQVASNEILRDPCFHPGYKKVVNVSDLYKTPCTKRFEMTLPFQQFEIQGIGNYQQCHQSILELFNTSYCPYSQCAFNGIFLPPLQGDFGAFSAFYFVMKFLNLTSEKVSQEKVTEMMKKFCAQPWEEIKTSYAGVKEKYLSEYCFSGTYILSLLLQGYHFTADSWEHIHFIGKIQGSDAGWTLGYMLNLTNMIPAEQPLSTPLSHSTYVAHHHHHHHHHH

[2] = biological target: T2, human CD39 expressed on the cell surface (human, UniProt P49961 1-510); test: cell-based or functional assay
T2 sequence: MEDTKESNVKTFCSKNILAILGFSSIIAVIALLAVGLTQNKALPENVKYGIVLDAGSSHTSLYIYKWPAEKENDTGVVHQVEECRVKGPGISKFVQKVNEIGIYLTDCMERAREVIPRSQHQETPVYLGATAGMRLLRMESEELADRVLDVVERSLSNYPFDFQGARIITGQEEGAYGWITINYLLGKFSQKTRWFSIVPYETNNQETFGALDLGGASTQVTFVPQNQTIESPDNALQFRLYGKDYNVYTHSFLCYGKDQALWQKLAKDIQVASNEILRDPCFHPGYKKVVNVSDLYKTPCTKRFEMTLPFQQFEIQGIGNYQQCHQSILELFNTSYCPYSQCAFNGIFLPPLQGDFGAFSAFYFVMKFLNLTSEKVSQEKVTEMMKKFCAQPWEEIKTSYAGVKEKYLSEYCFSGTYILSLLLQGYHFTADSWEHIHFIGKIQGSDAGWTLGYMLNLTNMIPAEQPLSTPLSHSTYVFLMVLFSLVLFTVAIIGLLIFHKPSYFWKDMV

[3] = biological target: T2, human CD39 expressed on the cell surface; test: FACS on CHO-K1 cells overexpressing human CD39
[4] = biological target: T2, human CD39 expressed on the cell surface; test: flow cytometry on purified human CD14+ monocytes, 0 uM ATP
[5] = biological target: T2, human CD39 expressed on the cell surface; test: cell-based or functional assay; remark: listed apart in the source
[6] = biological target: T1, soluble His-tagged human CD39 ECD …; test: SPR (Biacore 8K), antibody captured via anti-human Fc, CD39 ECD analyte; remark: listed apart in the source
[7] = biological target: T2, human CD39 expressed on the cell surface; test: cell-based or functional assay; remark: listed apart in the source
[8] = biological target: T2, human CD39 expressed on the cell surface; test: cell-based or functional assay; remark: listed apart in the source
[9] = biological target: T2, human CD39 expressed on the cell surface; test: cell-based or functional assay; remark: listed apart in the source
[10] = biological target: T3, cynomolgus monkey CD39 expressed on HEK-293 cells (cynomolgus monkey, UniProt P49961 5-510 (human entry)); test: FACS on HEK293 cells overexpressing cynomolgus CD39
T3 construct: also called Cynomolgus Monkey CD39-HEK293
T3 chain: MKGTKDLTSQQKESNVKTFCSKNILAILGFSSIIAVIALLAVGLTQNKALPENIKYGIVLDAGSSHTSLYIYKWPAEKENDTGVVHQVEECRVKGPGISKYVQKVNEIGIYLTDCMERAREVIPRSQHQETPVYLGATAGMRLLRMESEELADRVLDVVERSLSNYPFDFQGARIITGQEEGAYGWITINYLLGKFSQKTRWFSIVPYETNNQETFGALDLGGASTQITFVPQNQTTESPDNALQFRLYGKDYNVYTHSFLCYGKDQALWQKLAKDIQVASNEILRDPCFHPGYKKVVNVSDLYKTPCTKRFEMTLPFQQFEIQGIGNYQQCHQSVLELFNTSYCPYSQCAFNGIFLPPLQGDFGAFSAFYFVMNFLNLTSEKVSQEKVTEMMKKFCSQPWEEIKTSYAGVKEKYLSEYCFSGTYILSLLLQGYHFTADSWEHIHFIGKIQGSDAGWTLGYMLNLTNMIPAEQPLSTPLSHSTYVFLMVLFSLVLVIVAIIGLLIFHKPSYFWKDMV

[11] = biological target: T2, human CD39 expressed on the cell surface; test: flow cytometry on purified human CD14+ monocytes, 400 uM ATP

B1: hu39.3_IGG4.P (antibody, human IgG4 S228P, kappa)
heavy: EVQLVESGGGLVQPGRSLRLSCAASGFTFNNYGMNWVRQAPGKGLEWVSSFSSSSTYISYADTVKGRFTISRDNAKNSLYLQMNSLRAEDTALYYCARHGRYGGYGGFYFDYWGQGTMVTVSSASTKGPSVFPLAPCSRSTSESTAALGCLVKDYFPEPVTVSWNSGALTSGVHTFPAVLQSSGLYSLSSVVTVPSSSLGTKTYTCNVDHKPSNTKVDKRV[no letters for human IgG4 Fc with S228P (EU numbers)]
light: EIVMTQSPATLSVSPGERATLSCRASEGVKSYMHWYQQKPGQAPRLLIYKASNLASGIPARFSGSGSGTEFTLTISSLQSEDFAVYYCQQSWNDPTFGQGTKLELKRTVAAPSVFIFPPSDEQLKSGTASVVCLLNNFYPREAKVQWKVDNALQSGNSQESVTEQDSKDSTYSLSSTLTLSKADYEKHKVYACEVTHQGLSSPVTKSFNRGEC
notes: humanized variant of antibody 39 (VH1 + VL3), IgG4 (S228P)
Kd [1]: 0.254 nM
koff [1]: 0.000116 s⁻¹
kon [1]: 455000 M⁻¹ s⁻¹

B3: hu39.6_IGG4.P (antibody, human IgG4 S228P, kappa)
heavy: B1 heavy with E1Q, L11V, S49A, A75S, S78T, N84S, L93V
light: B1 light
notes: humanized variant of antibody 39 (VH3 + VL3), IgG4 (S228P)
IC50, CD39 enzymatic inhibition on THP-1 cells, 20 uM ATP [2]: 0.058 nM
Max Inhibition (%), THP-1 cells [2]: 79%
Kd [1]: 0.347 nM
koff [1]: 9.38e-05 s⁻¹
kon [1]: 270000 M⁻¹ s⁻¹
EC50 [4]: 3.5 nM
IC50, CD39 enzymatic inhibition on human monocytes, 400 uM ATP [5]: 0.38 nM
Max Inhibition (%), human monocytes, 400 uM ATP [5]: 73%
IC50, CD39 enzymatic inhibition on SK-MEL-5 cells, 20 uM ATP [7]: 0.12 nM
Max Inhibition (%), SK-MEL-5 cells [7]: 55%
IC50, CD39 enzymatic inhibition on human monocytes, 20 uM ATP [9]: 0.21 nM
Max Inhibition (%), human monocytes, 20 uM ATP [9]: 68%
EC50 [11]: 6.5 nM

More lines, now with the values ahead:

IC50, CD39 enzymatic inhibition on THP-1 cells, 20 uM ATP [2]: 0.071 nM
Max Inhibition (%), THP-1 cells [2]: 77%
EC50 [3]: 0.46 nM
EC50 [4]: 5.7 nM
IC50, CD39 enzymatic inhibition on human monocytes, 400 uM ATP [5]: 0.39 nM
Max Inhibition (%), human monocytes, 400 uM ATP [5]: 70%
Kd [6]: 0.191 nM
koff [6]: 5.87e-05 s⁻¹
kon [6]: 308000 M⁻¹ s⁻¹
IC50, CD39 enzymatic inhibition on SK-MEL-5 cells, 20 uM ATP [7]: 0.2 nM
Max Inhibition (%), SK-MEL-5 cells [7]: 65%
Human THP-1 CD39 inhibition IC50 [8]: 0.08 nM
IC50, CD39 enzymatic inhibition on human monocytes, 20 uM ATP [9]: 0.2 nM
Max Inhibition (%), human monocytes, 20 uM ATP [9]: 70%
EC50 [10]: 0.11 nM
EC50 [11]: 6.9 nM
B2: hu39.7_IGG4.P (antibody, human IgG4 S228P, kappa)
heavy: B1 heavy with E1Q, L11V, S49A, A75S, S78T, N84S, L93V
light: B1 light with I2T
notes: humanized variant of antibody 39 (VH3 + VL3 with I2T), IgG4 (S228P)

Kd [6]: 0.15 nM
koff [6]: 8.5e-05 s⁻¹
kon [6]: 567000 M⁻¹ s⁻¹
B4: hu39.8_IGG4.P (antibody, human IgG4 S228P, kappa)
heavy: B1 heavy
light: B1 light with I2T
notes: humanized variant of antibody 39 (VH1 + VL3 with I2T), IgG4 (S228P)
